Experimental data published in PubChem BioAssay AID624296 (National Center for Advancing Translational Sciences (NCATS), 2012).
The campaign covered roughly 350,000 compounds. About 9,900 (2.8%) were called active. The inconclusive results got no clear call from the source; some entries with a clear call stand among them for comparison. Calls come from the whole dose curve; as a rule, active = well fitted activation curve with a large enough effect; inconclusive = small, poorly fitted or top-dose-only effect; inactive = no such curve, though single readings can be large or run the other way. Potencies of inconclusive entries are left out as doubtful fits.
Potency is the fitted concentration of half-maximal effect; tags give direction and shape of the fitted curve.

Assay: A quantitative high throughput screen for small molecules that induce DNA re-replication in MCF 10a normal breast cells. For activity, positive = re-replication: % of control where 0% means no effect. Note: nearly all actives have a fitted effect of over 50% in size.
Details: MCF 10A DNA re-replication, Hoechst nuclear intensity, 48 h; activity, positive = re-replication: at 46.1 µM (top of the series)
For `CCOC(=O)c1c(SC)[nH]c2c(Cl)cccc2c1=O`, the “activity, positive = re-replication” value was inactive: -1.57%.
With `Cc1cccc(N2CCC(N3CCN(C4CCCCC4)C(CCO)C3)CC2)c1C` (stereo not drawn) the Potency was active: 16.4 µM.
With `CCc1ccc(-c2cc(C)no2)cc1S(=O)(=O)NCCc1ccccc1` the Potency was inconclusive [activator, single point].
For `COC(=O)C(Cc1c[nH]c2ccccc12)NC(=O)c1cc(-c2ccc(OC)c(OC)c2)oc1C` (stereo not drawn), the Potency was inconclusive [activator, partial curve, poor fit].
In the case of `CCOc1ccc(S(=O)(=O)n2c(C)nc3ccccc32)cc1`, the Potency is reported as inconclusive [activator, single point].
With `Cc1cc(C)c(S(=O)(=O)Nc2nccs2)c(C)c1` the Potency was inconclusive [activator, single point].
In the case of `COc1ccc(Cc2nc(C)cc(Cl)n2)cc1[N+](=O)[O-]`, the “activity, positive = re-replication” value is reported as inactive: -8.22%.
For `CC(Cc1cccs1)NC(=S)Nc1ccccc1` (stereo not drawn), the Potency was inconclusive [activator, partial curve, poor fit].
For `Cc1ccc2nc(C)c(C(=O)NN=C3CCCCCC3)n2c1`, the Potency was inconclusive [activator, partial curve, poor fit].
For `CC(=O)Nc1ccc(S(=O)(=O)Nc2nc3ccccc3nc2N2CCCCCC2)cc1`, the Potency was inconclusive [activator, single point].
For `NC(=S)NNc1c(F)c(F)c(F)c(F)c1F`, the Potency was active: 14.6 µM.
In the case of `C[C@H]1NC(=O)[C@@]2(C)[C@H](c3ccccc3)[C@H]3COc4ccccc4[C@@H]3N2C1=O`, the “activity, positive = re-replication” value is reported as inactive: -16%.
In the case of `Cc1ccc(N(CC(=O)NCc2ccco2)C(=O)CCC(=O)Nc2nccs2)cc1C`, the Potency is reported as inconclusive [activator, single point].
In the case of `OC(COc1ccc(CNCCc2ccccc2F)cc1)CN1CCCCC1` (stereo not drawn), the Potency is reported as active: 18.4 µM.
For `Cc1cc(NC(=O)c2ccc(Br)c(S(=O)(=O)N3CCCC3)c2)no1`, the “activity, positive = re-replication” value was inactive: -2.44%.
In the case of `CN(C)CCCNc1ccc(-c2cc(Nc3cccc(Cl)c3)ncn2)cn1`, the Potency is reported as active: 20.6 µM.
In the case of `CNC(=O)c1c(NC(=O)c2ccc(S(=O)(=O)N3CCCCC3C)cc2)sc2c1CCN(C)C2` (stereo not drawn), the Potency is reported as active: 20.6 µM.
For `CCOc1ccc(NC(=O)/C=C/c2ccc(OC)cc2)c([N+](=O)[O-])c1`, the “activity, positive = re-replication” value was inactive: 1.46%.
In the case of `CC(=O)Nc1ccc(S(=O)(=O)n2nc(-c3ccc(C)cc3)nc2N)cc1`, the Potency is reported as inconclusive [activator, partial curve, poor fit].
With `CC(C)NC(=O)C1CCCN(S(=O)(=O)c2cccc3nonc23)C1` (stereo not drawn) the “activity, positive = re-replication” value was inactive: -6.8%.
For `CCCCCCSc1ccc([C@@H]2[C@H]3C(=O)N(CC)C(=O)[C@H]3[C@]3(C(=O)OC)CCCN23)cc1`, the Potency was inconclusive [activator, full curve, poor fit].
For `COC(=O)c1cc(=O)n(CCc2ccc(OC)c(OC)c2)c(=Nc2ccc(F)c(Cl)c2)s1`, the Potency was active: 3.26 µM.
For `C#CCOCCOCCOCCNc1nc(N2CCN(C(=O)[C@H](CCCCN)n3cc([C@@H](N)[C@H](C)CC)nn3)CC2)nc(N2CCN(C(=O)[C@H](CCC(=O)O)n3cc([C@@H](N)CCCCN)nn3)CC2)n1`, the Potency was inconclusive [activator, single point].
In the case of `O=C(NCCc1ccc(Cl)cc1)c1ccc2nc(N3CCOCC3)sc2c1`, the Potency is reported as active: 20.6 µM.
With `COC(=O)c1ccc(N/C=C/C(=O)c2ccccc2)cc1` the “activity, positive = re-replication” value was inactive: 2.33%.
With `CCC(O)(c1ccccc1)C(CN1CCOCC1)c1ccccc1` (stereo not drawn) the “activity, positive = re-replication” value was inactive: -0.173%.
For `CSc1ccc(/C=C/C(=O)c2c(O)cc(C)oc2=O)cc1`, the Potency was inconclusive [activator, single point].
In the case of `COc1ccc(Cl)cc1NC(=O)CN1CCC(n2nnc3cc(C)ccc32)CC1`, the Potency is reported as inconclusive [activator, partial curve].
In the case of `CC(C)OC(=O)CC(=O)CSc1nc2c(cc1C#N)CCC2`, the Potency is reported as inconclusive [activator, single point].
In the case of `CC(C)Cc1nc2oc3c(Cl)ncnc3c2c2c1CCC2`, the Potency is reported as inconclusive [activator, full curve, poor fit].
With `COc1ccc(-n2nc(C(=O)NCC(=O)Nc3cc(OC)c(OC)c(OC)c3)c3ccccc3c2=O)cc1OC` the “activity, positive = re-replication” value was inactive: 19.7%.
In the case of `Cc1cc(C(=O)Nc2c(C)nn(Cc3ccccc3Cl)c2C)no1`, the “activity, positive = re-replication” value is reported as inactive: 2.6%.
In the case of `CCS(=O)c1scc(-c2ccc(Cl)cc2)c1C#N` (stereo not drawn), the “activity, positive = re-replication” value is reported as inactive: 9.48%.
In the case of `CCN(CC)c1ccc(S(=O)(=O)Nc2cc(Cl)ccc2Cl)cc1NC(=S)NC(=O)C1CCCC1`, the Potency is reported as active: 11.6 µM.
With `Cc1ncc([N+](=O)[O-])n1CCOC(=O)c1ccccc1` the Potency was inconclusive [activator, single point].
For `CC(C)NC(=O)c1ccc2c3n(nc2c1)-c1ccc(Cl)cc1CO3`, the Potency was inconclusive [activator, single point].
For `Cc1cccc(NC(=O)N2CCN(Cc3ccccc3)CC2)c1`, the “activity, positive = re-replication” value was inactive: 5.14%.
In the case of `COc1cc(SC)ccc1C(=O)NC1CCCc2ccccc21` (stereo not drawn), the Potency is reported as inconclusive [activator, single point].
With `O=C(COC(=O)C1CCN(c2ccc(C(F)(F)F)cn2)CC1)Nc1ncc(Cl)cc1Cl` the “activity, positive = re-replication” value was inactive: -3.17%.
With `CC(=O)c1ccc(NC(=O)/C=C/c2ccc(C)cc2)cc1` the “activity, positive = re-replication” value was inactive: -1.17%.
With `Cn1cnc([N+](=O)[O-])c1S(=O)(=O)Oc1cccc2ccccc12` the Potency was active: 5.8 µM.
In the case of `O=C1/C(=C/c2ccccc2)CCC1C1CCCC1` (stereo not drawn), the “activity, positive = re-replication” value is reported as inactive: 19.7%.
In the case of `Cc1sc2c(c1C)C(=O)NC(c1ccccc1F)N2` (stereo not drawn), the “activity, positive = re-replication” value is reported as inactive: 12.9%.
In the case of `Nc1cc(C(=O)O)c(N)c2c1C(=O)c1ccccc1C2=O`, the Potency is reported as inconclusive [activator, partial curve, poor fit].
For `O=C(c1sc2ccccc2c1Cl)N(Cc1ccco1)C1CCS(=O)(=O)C1` (stereo not drawn), the “activity, positive = re-replication” value was inactive: 0.388%.
For `Cc1ccc(NC(=O)CNCC2CCCCC2)cc1S(=O)(=O)N(C)C`, the “activity, positive = re-replication” value was inactive: 5.75%.
For `COc1ccc(CCN(C)C(=S)Nc2cccc(C)c2)cc1OC`, the “activity, positive = re-replication” value was inactive: 0.873%.
With `COc1ccc(NS(=O)(=O)c2cc(NC(=O)/C=C/c3cccs3)ccc2N2CCOCC2)cc1` the “activity, positive = re-replication” value was inactive: 5.97%.
In the case of `COc1ccc(CC(=O)Nc2ccc(OC)c(NC(=O)c3ccco3)c2)cc1`, the “activity, positive = re-replication” value is reported as inactive: -2.12%.
With `Cc1cc(C(=O)NN=Cc2ccc(-c3ccc(F)cc3)o2)c(C)o1` the “activity, positive = re-replication” value was inactive: -1.94%.
For `CCN(CC)CCC(=O)N1c2ccccc2Sc2ccc(Cl)cc21`, the Potency was active: 29.9 µM.
In the case of `O=C(Nc1cccc(N=Cc2cc(Cl)cc(Br)c2O)c1)c1ccco1`, the Potency is reported as inconclusive [activator, single point].
In the case of `Cc1cccc(CSc2nc3c(c(-c4cccs4)c2C#N)CN(C)CC3)c1`, the Potency is reported as inconclusive [activator, partial curve].
With `COc1ccc(NC(=S)NC(NC(=O)CCl)C(Cl)(Cl)Cl)c([N+](=O)[O-])c1` (stereo not drawn) the “activity, positive = re-replication” value was inactive: 17.9%.
With `COC(=O)c1c(C)[nH]c(C(=O)CSc2ncnc3sc(-c4ccccc4)cc23)c1C` the Potency was inconclusive [activator, single point].
In the case of `Cc1cc(N(C)Cc2ccccc2)nc(-c2ccccc2)n1`, the Potency is reported as inconclusive [activator, single point].
With `CN(C)c1ccc(/C=N/N=C/c2ccccc2O)cc1` the “activity, positive = re-replication” value was inactive: 11.3%.
In the case of `CC(C)c1ccc(N=C2N=C(N)c3ccccc32)cc1`, the Potency is reported as inconclusive [activator, single point].
For `O=C(COc1ccccc1)N(Cc1ccccc1)c1nc(-c2ccccc2)cs1`, the Potency was inconclusive [activator, partial curve, poor fit].
In the case of `Cc1cccn2cc(-c3cc4ccccc4oc3=O)nc12`, the Potency is reported as inconclusive [activator, partial curve, poor fit].
For `c1ccc2c(c1)ncn2-c1ncnc2sc3c(c12)CCCC3`, the “activity, positive = re-replication” value was inactive: 3.29%.
For `CC(=O)n1c2c(c3ccccc31)OC(N)=C(C#N)C2c1cccc(Cl)c1Cl` (stereo not drawn), the Potency was inconclusive [activator, partial curve, poor fit].
For `Cc1ccc(NC(=S)NC(C)CCc2ccccc2)cc1C` (stereo not drawn), the Potency was inconclusive [activator, partial curve, poor fit].
In the case of `CCN(CC)CCSc1nnc2c3ccccc3n(CCc3ccccc3)c2n1`, the “activity, positive = re-replication” value is reported as inactive: 13.8%.
With `CN1CCC(Oc2ccccc2Sc2ccccc2)CC1` the Potency was inconclusive [activator, single point].
For `CN(C)C(=O)CCSC(SCCC(=O)O)c1cccc(/C=C/c2ccc3ccc(Cl)cc3n2)c1` (stereo not drawn), the Potency was inconclusive [activator, partial curve].
For `OC1(c2ccc(Br)cc2)CCN(Cc2cccc(Br)c2)CC1`, the “activity, positive = re-replication” value was inactive: 5.18%.
In the case of `Cc1cccc(NC(=O)CSCC(=O)N(C)CCOc2ccc(Cl)cc2)c1`, the Potency is reported as inconclusive [activator, partial curve, poor fit].
With `COc1ccccc1CC(=O)Nc1ccc(S(=O)(=O)N2CCOCC2)cc1` the Potency was inconclusive [activator, full curve, poor fit].
With `O=C1c2ccccc2C(=O)N1CCCCN(C(=O)c1ccc([N+](=O)[O-])cc1)c1ccc(Cl)cc1` the Potency was inconclusive [activator, partial curve, poor fit].
In the case of `Cc1ccc(S(=O)(=O)NCC(=O)Nc2ccc(C(F)(F)F)cc2)cc1`, the “activity, positive = re-replication” value is reported as inactive: -20.9%.
With `COC(=O)c1cccc(C23CC4(C2)[C@H](CN(C)[C@@H]4c2ccccc2)C3c2ccc(C(F)(F)F)cc2)c1` (stereo partly drawn) the Potency was inconclusive [activator, single point].
In the case of `CC(OC(=O)CCc1nc2ccccc2c(=O)[nH]1)C(=O)c1ccc(C(C)(C)C)cc1` (stereo not drawn), the Potency is reported as inconclusive [activator, partial curve].
